# Some of the results follow.
# Legend:
# Assay in all cases: glycan array binding signal (z-score within array); higher = stronger binding
# Settings in all cases: glycan notation: IUPAC condensed, linker removed
# Fuc(a1-2)Gal = biological target: Fuc(a1-2)Gal
# Summary of the method: (§1)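 Columns mapping to the same glycan were averaged after glycan names were converted to IUPAC-condensed notation. The data come from 3228 arrays in the Consortium for Functional Glycomics database, limited to those with an available protein sequence. Binding is reported as a within-array Z-score averaged across arrays of one protein sequence and across linkers.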
# Fuc(a1-2)Gal(b1-3)GalNAc = biological target: Fuc(a1-2)Gal(b1-3)GalNAc
# Summary of the method: as §1
# [1] = biological target: Fuc(a1-2)Gal(b1-3)GalNAc(b1-3)Gal
# Summary of the method: as §1
# [2] = biological target: Fuc(a1-2)Gal(b1-3)GalNAc(b1-3)Gal(a1-4)Gal(b1-4)Glc
# Summary of the method: as §1
# [3] = biological target: Fuc(a1-2)Gal(b1-3)GalNAc(b1-4)[Neu5Ac(a2-3)]Gal(b1-4)Glc
# Summary of the method: as §1
# Fuc(a1-2)Gal(b1-3)GlcNAc = biological target: Fuc(a1-2)Gal(b1-3)GlcNAc
# Summary of the method: as §1
# [4] = biological target: Fuc(a1-2)Gal(b1-3)GlcNAc(b1-3)Gal(b1-4)Glc
# Summary of the method: as §1
# [5] = biological target: Fuc(a1-2)Gal(b1-3)[Fuc(a1-4)]GlcNAc
# Summary of the method: as §1
# Fuc(a1-2)Gal(b1-4)Glc = biological target: Fuc(a1-2)Gal(b1-4)Glc
# Summary of the method: as §1
# Fuc(a1-2)Gal(b1-4)GlcNAc = biological target: Fuc(a1-2)Gal(b1-4)GlcNAc
# Summary of the method: as §1
# [6] = biological target: Fuc(a1-2)Gal(b1-4)GlcNAc(b1-3)Gal(b1-4)GlcNAc
# Summary of the method: as §1
# [7] = biological target: Fuc(a1-2)Gal(b1-4)GlcNAc(b1-3)Gal(b1-4)GlcNAc(b1-3)Gal(b1-4)GlcNAc
# Summary of the method: as §1
# [8] = biological target: Fuc(a1-2)Gal(b1-4)[Fuc(a1-3)]GlcNAc
# Summary of the method: as §1
# [9] = biological target: Fuc(a1-2)Gal(b1-4)[Fuc(a1-3)]GlcNAc(b1-3)Gal(b1-4)[Fuc(a1-3)]GlcNAc
# Summary of the method: as §1
# [10] = biological target: Fuc(a1-2)Gal(b1-4)[Fuc(a1-3)]GlcNAc(b1-3)Gal(b1-4)[Fuc(a1-3)]GlcNAc(b1-3)Gal(b1-4)[Fuc(a1-3)]GlcNAc
# Summary of the method: as §1
# Fuc(a1-2)GlcNAc = biological target: Fuc(a1-2)GlcNAc
# Summary of the method: as §1
# Fuc(a1-2)[Gal(a1-3)]Gal = biological target: Fuc(a1-2)[Gal(a1-3)]Gal
# Summary of the method: as §1
# [11] = biological target: Fuc(a1-2)[Gal(a1-3)]Gal(b1-3)GlcNAc
# Summary of the method: as §1
# [12] = biological target: Fuc(a1-2)[Gal(a1-3)]Gal(b1-4)Glc
# Summary of the method: as §1
# [13] = biological target: Fuc(a1-2)[Gal(a1-3)]Gal(b1-4)GlcNAc
# Summary of the method: as §1
# [14] = biological target: Fuc(a1-2)[Gal(a1-3)]Gal(b1-4)[Fuc(a1-3)]GlcNAc
# Summary of the method: as §1
# [15] = biological target: Fuc(a1-2)[Gal(a1-4)]Gal(b1-4)GlcNAc
# Summary of the method: as §1
# [16] = biological target: Fuc(a1-2)[GalNAc(a1-3)]Gal
# Summary of the method: as §1
# [17] = biological target: Fuc(a1-2)[GalNAc(a1-3)]Gal(b1-3)GlcNAc
# Summary of the method: as §1
# [18] = biological target: Fuc(a1-2)[GalNAc(a1-3)]Gal(b1-4)Glc
# Summary of the method: as §1
# [19] = biological target: Fuc(a1-2)[GalNAc(a1-3)]Gal(b1-4)GlcNAc
# Summary of the method: as §1
# [20] = biological target: Fuc(a1-2)[GalNAc(a1-3)]Gal(b1-4)[Fuc(a1-3)]GlcNAc
# Summary of the method: as §1
# [21] = biological target: Fuc(a1-2)[GalNAc(a1-4)]Gal(b1-4)GlcNAc
# Summary of the method: as §1
# [22] = biological target: Fuc(a1-2)[GalNAc(b1-3)]Gal
# Summary of the method: as §1
# Fuc(a1-3)GlcNAc = biological target: Fuc(a1-3)GlcNAc
# Summary of the method: as §1
# [23] = biological target: Fuc(a1-3)[Gal(b1-4)]GlcNAc
# Summary of the method: as §1
# [24] = biological target: Fuc(a1-3)[Gal(b1-4)]GlcNAc(b1-4)Gal(b1-4)[Fuc(a1-3)]GlcNAc
# Summary of the method: as §1
# [25] = biological target: Fuc(a1-3)[Gal(b1-4)]GlcNAc(b1-4)Gal(b1-4)[Fuc(a1-3)]GlcNAc(b1-4)Gal(b1-4)[Fuc(a1-3)]GlcNAc
# Summary of the method: as §1
# [26] = biological target: Fuc(a1-3)[Gal3S(b1-4)]GlcNAc
# Summary of the method: as §1
# [27] = biological target: Fuc(a1-3)[GalNAc(b1-4)]GlcNAc
# Summary of the method: as §1
# Fuc(a1-4)GlcNAc = biological target: Fuc(a1-4)GlcNAc
# Summary of the method: as §1
# Fuc(b1-3)GlcNAc = biological target: Fuc(b1-3)GlcNAc
# Summary of the method: as §1
binder,measurement,setting,value
"F17fG (Escherichia coli), Q9RH91 (protein) MTNFYKVFLAVFILVCCNISHAAVSFIGSTENDVGPSQGSYSSTHAMDNLPFVYNTGHNIGYQNANVWRISGGFCVGLDGKVDLPVVGSLDGQSIYGLTEEVGLLIWMGDTNYSRGTAMSGNSWENVFSGWCVGNYVSTQGLSVHVRPVILKRNSSAQYSVQKTSIGSIRMRPYNGSSAGSVQTTVNFSLNPFTLNDTVTSCRLLTPSAVNVSLAAISAGQLPSSGDEVVAGTTSLKLQCDAGVTVWATLTDATTPSNRSDILTLTGASTATGVGLRIYKNTDSTPLKFGPDSPVKGNENQWQLSTGTETSPSVRLYVKYVNTGEGINPGTVNGISTFTFSYQ",glycan array binding signal (z-score),Fuc(a1-2)Gal,-0.338
same,glycan array binding signal (z-score),Fuc(a1-2)Gal(b1-3)GalNAc,-0.344
same,glycan array binding signal (z-score),[1],-0.341
same,glycan array binding signal (z-score),[2],-0.22
same,glycan array binding signal (z-score),[3],-0.197
same,glycan array binding signal (z-score),Fuc(a1-2)Gal(b1-3)GlcNAc,-0.319
same,glycan array binding signal (z-score),[4],-0.347
same,glycan array binding signal (z-score),[5],-0.364
same,glycan array binding signal (z-score),Fuc(a1-2)Gal(b1-4)Glc,0.36
same,glycan array binding signal (z-score),Fuc(a1-2)Gal(b1-4)GlcNAc,-0.322
same,glycan array binding signal (z-score),[6],-0.23
same,glycan array binding signal (z-score),[7],-0.327
same,glycan array binding signal (z-score),[8],-0.336
same,glycan array binding signal (z-score),[9],-0.338
same,glycan array binding signal (z-score),[10],-0.335
same,glycan array binding signal (z-score),Fuc(a1-2)GlcNAc,-0.38
same,glycan array binding signal (z-score),Fuc(a1-2)[Gal(a1-3)]Gal,-0.198
same,glycan array binding signal (z-score),[11],-0.391
same,glycan array binding signal (z-score),[12],-0.394
same,glycan array binding signal (z-score),[13],-0.267
same,glycan array binding signal (z-score),[14],-0.328
same,glycan array binding signal (z-score),[15],-0.127
same,glycan array binding signal (z-score),[16],-0.358
same,glycan array binding signal (z-score),[17],-0.157
same,glycan array binding signal (z-score),[18],-0.36
same,glycan array binding signal (z-score),[19],-0.206
same,glycan array binding signal (z-score),[20],-0.268
same,glycan array binding signal (z-score),[21],0.293
same,glycan array binding signal (z-score),[22],-0.394
same,glycan array binding signal (z-score),Fuc(a1-3)GlcNAc,-0.201
same,glycan array binding signal (z-score),[23],-0.39
same,glycan array binding signal (z-score),[24],-0.238
same,glycan array binding signal (z-score),[25],-0.262
same,glycan array binding signal (z-score),[26],-0.234
same,glycan array binding signal (z-score),[27],-0.301
same,glycan array binding signal (z-score),Fuc(a1-4)GlcNAc,-0.38
same,glycan array binding signal (z-score),Fuc(b1-3)GlcNAc,-0.373
